# Measured values reported in article PMC4336329 (PLoS ONE, 2015).
# In all, about 310,000 compounds went through this assay and about 14,000 (4.5%) showed an effect of 50% or more. The effect is printed as a negative number. The list shows a part of the results.
# Target: human ether-à-go-go-related gene (hERG) potassium channel (human, UniProt Q12809)
# Test: primary screen, population patch clamp on CHO cells stably expressing hERG
# 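Note: peak tail current of the secondary pulse compared with the same well before compound.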
# Sequence of human ether-à-go-go-related gene (hERG) potassium channel (Q12809 whole entry, looked up): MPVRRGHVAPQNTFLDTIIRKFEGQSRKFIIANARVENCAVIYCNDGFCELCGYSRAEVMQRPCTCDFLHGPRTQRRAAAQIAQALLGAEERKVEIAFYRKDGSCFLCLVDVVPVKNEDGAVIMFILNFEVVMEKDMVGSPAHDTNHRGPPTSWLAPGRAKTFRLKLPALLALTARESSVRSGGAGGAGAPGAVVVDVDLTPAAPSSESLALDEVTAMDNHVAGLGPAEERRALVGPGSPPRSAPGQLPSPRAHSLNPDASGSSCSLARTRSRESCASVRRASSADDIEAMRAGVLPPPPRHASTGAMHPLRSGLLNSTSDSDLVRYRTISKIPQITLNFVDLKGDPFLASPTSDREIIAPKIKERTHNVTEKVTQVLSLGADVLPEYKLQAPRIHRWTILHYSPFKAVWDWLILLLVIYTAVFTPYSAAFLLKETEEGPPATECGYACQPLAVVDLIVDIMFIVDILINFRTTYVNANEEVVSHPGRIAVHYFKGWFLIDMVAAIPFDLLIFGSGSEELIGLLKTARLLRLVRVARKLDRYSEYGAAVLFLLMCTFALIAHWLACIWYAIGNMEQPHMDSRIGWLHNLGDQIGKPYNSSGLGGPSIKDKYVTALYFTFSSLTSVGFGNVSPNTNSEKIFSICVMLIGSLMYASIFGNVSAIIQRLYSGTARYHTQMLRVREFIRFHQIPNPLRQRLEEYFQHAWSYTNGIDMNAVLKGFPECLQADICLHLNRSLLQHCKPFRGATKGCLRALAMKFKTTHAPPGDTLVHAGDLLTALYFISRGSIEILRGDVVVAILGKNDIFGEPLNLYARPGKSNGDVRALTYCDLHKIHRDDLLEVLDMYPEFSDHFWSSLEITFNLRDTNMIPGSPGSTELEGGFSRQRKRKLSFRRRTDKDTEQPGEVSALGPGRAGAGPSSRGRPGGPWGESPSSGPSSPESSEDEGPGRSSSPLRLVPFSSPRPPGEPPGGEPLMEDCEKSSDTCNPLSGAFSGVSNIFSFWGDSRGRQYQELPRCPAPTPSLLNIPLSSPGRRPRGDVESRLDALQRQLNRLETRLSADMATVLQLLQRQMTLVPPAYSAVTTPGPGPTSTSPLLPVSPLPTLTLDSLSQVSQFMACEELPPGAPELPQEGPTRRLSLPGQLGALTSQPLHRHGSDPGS
row,Structure (SMILES),"hERG current change (%, negative = inhibition) at 10uM [%]"
1,Cc1ccc(C2c3c(oc4ccccc4c3=O)C(=O)N2c2nnc(C(C)C)s2)o1 (stereo not shown),1.99
2,COCCN(CCOC)CC(O)COC(c1ccccc1)c1ccccc1 (stereo not shown),-35.9
3,S=C(NCc1ccccc1)N1CCN(C2CCCCC2)CC1,-62.6
4,O=C(NCC1CCCO1)c1ccc(COc2ccc(F)cc2)o1 (stereo not shown),-5.59
5,Cc1ccnc(SCC(=O)Nc2oc(-c3ccccc3)c(-c3ccccc3)c2C#N)n1,13.9
6,CC(C)OCCCNC(=O)C1CCN(S(=O)(=O)N2CCCCC2)CC1,15
7,CCOC(=O)C1=C(CSc2nc3c(cc2C#N)CN(C)CC3)OC(N)=C(C#N)C1c1ccccc1 (stereo not shown),-10.8
8,CCOCCCN(C(=O)CNC(=O)c1ccco1)C(C(=O)NC1CCCC1)c1ccccc1C (stereo not shown),20.6
9,Cc1ccc(S(=O)(=O)N2CCCC(C(=O)NC3=NCCS3)C2)cc1 (stereo not shown),10.2
10,O=C(C1CCCO1)N1CCN(S(=O)(=O)c2ccc(Cl)cc2)CC1 (stereo not shown),-15.6
11,O/C(=C\c1ccc2ccccc2n1)c1ccncc1,-13.6
12,O=C(c1ccccc1)c1cccs1,7.22
13,O[C@@H]1COC(Nc2ccc(N=Nc3ccccc3)cc2)C[C@@H]1O (stereo partly shown),13.6
14,CCCN(C(=O)c1cccc(S(=O)(=O)N2CCCc3ccccc32)c1)C1CCS(=O)(=O)C1 (stereo not shown),-24.3
15,O=C(CCS(=O)(=O)c1ccc(F)cc1)N1CCOCC1,-38
16,COc1cc(CCC(=O)OCC(=O)N2CCc3ccccc32)cc(OC)c1OC,23.7
17,CCCCn1nnnc1SCC(=O)Nc1ccc2c(c1)OCO2,2.41
18,Cc1ccc(SCc2nn(C)c(Cl)c2C=O)cc1,-46.9
19,COc1cccc(NC(=O)CCCn2c(=O)[nH]c3ccccc3c2=O)c1,4.65
20,O=C(OCCc1cc2ccccc2c(=O)o1)c1cccs1,-1.33
21,COc1ccc(OC)c(NC(=O)COC(=O)c2c3c(nc4ccccc24)CCCC3)c1,1.03
22,Cc1cc(C)nc(NS(=O)(=O)c2ccc(NC(=O)c3ccc(O)cc3O)cc2)n1,17.1

row,Structure (SMILES),"hERG current change (%, negative = inhibition) at 10uM [%]"
1,COc1ccc(NC(=O)c2cn(C)c(=O)c3cc(OC)c(OC)cc23)cc1OC,13.5
2,O=C(Nc1nnc(-c2ccc3c(c2)OCCO3)o1)C1CCCCC1,21.3
3,CCNC(=S)N1CCC(c2nc3ccccc3s2)CC1,-25.7
4,Cc1cc2c(c(=O)n1CCN(C)C)C(c1ccc(Br)cc1)C(C#N)=C(N)O2 (stereo not shown),-58.5
5,CC(C)NC(=O)Cn1cc(C(=O)COc2ccccc2)c2ccccc21,14
6,COc1ccc(/C=N/NC(=O)CNC(=O)COc2ccccc2)cc1,-4.02
7,COc1ccccc1N1C(=O)c2cccc3c(N(C)CCO)ccc(c23)C1=O,5.75
8,Cc1cc(OCC(=O)Nc2ccc(S(=O)(=O)N3CCN(C)CC3)cc2)ccc1Br,-22.3
9,O=C(Nc1ccc(Cl)cc1)c1cc2nc(C3CC3)cc(C(F)(F)F)n2n1,4.16
10,CCN(CC)CCn1c(SCC(=O)Nc2ccc3c(c2)CCC3)nc2ccccc2c1=O,-83
11,CCOc1ccc(Nc2nc(Nc3ccc(O)cc3)nc(C)c2[N+](=O)[O-])cc1,8.07
12,Cc1ccc(NS(=O)(=O)c2ccc(N/N=C/c3ccccc3OCC(=O)O)c([N+](=O)[O-])c2)c(C)c1,6.96
13,CC(C)(C)OC(=O)N1CCC(C(=O)N[C@@H](Cc2ccccc2)C(=O)O)CC1,4.88
14,CCNC(=S)N(Cc1cc2cccc(C)c2[nH]c1=O)C1CCCC1,2.25
15,O=C(Nc1nnc(-c2ccncc2)o1)c1ccccc1,8.79
16,CCCCCCn1c(O)c(C=NCCCn2ccnc2)c(=O)[nH]c1=O,-16.3
17,CCCCn1nc2cc(C(=O)NCc3ccccc3)ccc2c1OCC,-14.1
18,CCCCNc1cc(=O)n(C)c(=O)n1C,4.02
19,CC1Cc2ccccc2N1Cc1cc(=O)c(OCC(=O)Nc2ccccc2)co1 (stereo not shown),-8.75
20,COC(=O)[C@H]1Cc2c([nH]c3ccccc23)[C@H](c2ccccc2)N1,5.76
21,COc1ccc(C(=O)NC(=S)NNC(=O)c2ccc(NC(=O)C(C)C)cc2)cc1,26.2
22,CC(Oc1ccccc1Cl)C(=O)Nc1ccc(S(=O)(=O)Nc2nccs2)cc1 (stereo not shown),-0.857

row,Structure (SMILES),"hERG current change (%, negative = inhibition) at 10uM [%]"
1,CC(C)=CC1C=C(C)C(C)C2C(=O)NNC(=O)C12 (stereo not shown),14.9
2,O=C(NCC1CCCN(Cc2cccc(F)c2)C1)c1cccc2ccccc12 (stereo not shown),-17.6
3,CCCCc1nc(SCC(=O)Nc2ncccn2)n[nH]1,5.71
4,CCOC(Cn1c(SCc2cc(C(C)=O)ccc2OC)nc2ccccc2c1=O)OCC,3.59
5,CN(C)S(=O)(=O)c1cccc(NS(=O)(=O)c2ccc(Cl)s2)c1,2.17
6,COc1ccc(NC(=O)COC(=O)c2cc(Cl)ccc2O)cc1S(=O)(=O)N1CCCCC1,10.5
7,O=C(CN1C(=O)COc2ccc(S(=O)(=O)N3CCCCC3)cc21)NCc1ccccc1Cl,22.7
8,O=C(O)CNC1c2ccccc2CSc2ccccc21 (stereo not shown),19.5
9,COc1cccc(CNC(=O)Cn2ccc3cc(S(=O)(=O)N4CCC(C)CC4)ccc32)c1,-23.7
10,CCc1nnc(NC(=O)CSc2nnc(Cc3ccccc3)n2-c2ccccc2)s1,-3.2
11,O=C(/C=C/c1ccccc1[N+](=O)[O-])c1ccc(F)cc1,3.18
12,COc1ccc(CCNC(=O)c2cc(-c3ccc(C)cc3O)n[nH]2)cc1OC,5.19
13,CCOc1ccc2nc(N3C(=O)/C(=C/c4ccccc4)NC3=S)sc2c1,18.9
14,CCOc1cc(CNc2ccc(S(N)(=O)=O)cc2)ccc1OCC(=O)NC(C)(C)C,21.4
15,O=C(CCCOc1ccc(Cl)cc1Cl)N1CCN(c2ccccn2)CC1,-27.1
16,CCc1ccc(CN(C)C(=O)C2CCC(=O)N(CCc3ccc(OC)cc3)C2)nc1 (stereo not shown),-79.9
17,CCNc1nc(NCC)n2c(SCC(=O)Nc3ccc(F)cc3[N+](=O)[O-])nnc2n1,-18.8
18,COc1ccccc1N(C(=O)CNC(=O)c1ccco1)C(C(=O)NCC1CCCO1)c1ccccc1 (stereo not shown),8.04
19,O=C(Cc1ccc([N+](=O)[O-])cc1)N/N=C/c1cccnc1,-9.63
20,CC(=O)N1CCN(S(=O)(=O)c2cccc(C(=O)Nc3nccs3)c2)CC1,3.42
21,Nc1ccc(N=Nc2ccccc2)c2ccccc12,22.4
22,C/C(=N\NC(=O)C1(C)CC1(Br)Br)c1ccc(NC(=O)c2ccc(C)o2)cc1 (stereo not shown),-8.92

row,Structure (SMILES),"hERG current change (%, negative = inhibition) at 10uM [%]"
1,O=C(Nc1ccccc1)C1=C[C@@H](C2CCCCC2)C[C@@H](OCc2ccc(CO)cc2)O1,10.3
2,Cc1ccc(CSCC(=O)N(C)CC(=O)Nc2ccc(Cl)c(Cl)c2)cc1,7.19
3,COc1ccccc1C(=O)NCCCNc1ccc([N+](=O)[O-])cc1,-19.2
4,O=C(NCC1CCCO1)c1ccccc1NC(=O)c1cccc2ccccc12 (stereo not shown),-21.5
5,CC1C(=O)N2CCCc3cc(S(=O)(=O)N4CCC(C(N)=O)CC4)cc1c32 (stereo not shown),7.24
6,COC(=O)/C=C1\N/C(=N/c2nc(C)c3cc(OC)ccc3n2)NC1=O,6.39
7,CC(C)C12CN(C(=O)c3ccccc3[N+](=O)[O-])CC(C(C)C)(CN(C(=O)c3ccccc3[N+](=O)[O-])C1)C2=O,1.65
8,COC(=O)c1c(NC(=O)C2CCC2)sc(C(=O)N(C)C)c1C,4
9,CCOC(=O)c1c(NC(=O)CCS(=O)(=O)c2ccccc2)sc2c1CCN(C(C)C)C2.Cl,-72.4
10,CCN1C(=O)[C@H]2[C@@H](c3ccc(-c4ccc(OC)cc4)cc3)N[C@@](CC(C)C)(C(=O)OC)[C@H]2C1=O.O=C(O)C(F)(F)F,11.9
11,CC(=O)Nc1nnc(SCC(=O)c2ccc3c(c2)Cc2ccccc2-3)s1,17.2
12,COc1ccc(Cl)cc1C(=O)Nc1ccc(NC(C)=O)cc1,19.9
13,COc1ccc(CC(=O)NC(C)c2nnc(SCc3nc4ccccc4c(=O)[nH]3)n2C)cc1 (stereo not shown),10.5
14,O=c1[nH]c2ccccc2c(O)c1-[n+]1ccccc1.[Cl-],22.5
15,COc1ccc(Cc2nc3ccccc3n2C)cc1.Cl,-5.24
16,Cc1ccc(N2CCN(C(=O)c3ccccc3NC(=O)/C=C\C(=O)O)CC2)cc1,-20.9
17,CCOc1ccccc1/C=N/Nc1ccc(Cl)nn1,14
18,CCOC(=O)c1nnn(-c2nonc2N)c1-c1cccc2ccccc12,-0.911
19,CCN1CCN(CCCNC(=O)c2ccc(CS(=O)c3ccc(Br)cc3)o2)CC1 (stereo not shown),24.5
